Test results: PubChem BioAssay AID743449 (Broad Institute, 2014)
About 90 (0.9%) of roughly 9,900 compounds were called active. This list was built around the results that the source calls inconclusive (neither active nor inactive); the mix of calls is not that of the screen.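 The calls were made as follows: active = mean normalized replicate activity at least 50 and at least half of replicates each reaching 50; inconclusive = only one of the two criteria met; inactive = neither criterion met.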

experiment: reduction of CTGF mRNA in DLD1 cells – DLD1 colon cancer cells, RT-qPCR, single point, primary screen (AID 743449); conditions: 24 h, at 12.5 µM, stronger effect = higher value;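 also: 0% = neutral control wells and 100% = dasatinib control wells; higher means stronger suppression of CTGF expression like dasatinib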

Row | Compound | inhibition
1 | O=C(CN1CCOCC1)N1CC[C@H]2[C@H](CO)Nc3ccc(-c4ccccc4F)cc3[C@H]21 | inconclusive: 18%
2 | C/C=C/c1ccc([C@@H]2[C@@H](CN(CC)C(=O)CN(C)C)N(C(C)=O)[C@H]2CO)cc1 | inconclusive: 33.9%
3 | CO[C@@H]1CN(C)C(=O)c2cc(NC(=O)C3CCOCC3)ccc2OC[C@@H](C)N(C(=O)Nc2ccc(C(F)(F)F)cc2)C[C@H]1C | inconclusive: 45.8%
4 | COc1ccccc1C#Cc1ccc([C@H]2[C@H](CO)N3CCCCN(C(=O)C4CCC4)C[C@@H]23)cc1 | active: 68.7%
5 | O=C(Nc1ccc(C(F)(F)F)cc1)N[C@@H]1C=C[C@@H](CC(=O)N2CCCCC2)O[C@@H]1CO | inconclusive: 20.8%
6 | COc1cccc(CNC(=O)C[C@@H]2CC[C@H]3[C@@H](COc4ccc(NC(=O)c5cccs5)cc4C(=O)N3C)O2)c1 | inconclusive: 28.2%
7 | N#Cc1cccc(-c2ccc3c(c2)[C@H]2[C@H](CCN2S(=O)(=O)c2ccc(F)cc2)[C@@H](CO)N3)c1 | inconclusive: 43.5%
8 | CCCC#Cc1ccc2c(c1)O[C@@H](CN(C)Cc1ccccn1)[C@@H](C)CN([C@@H](C)CO)S2(=O)=O | inactive: -16.9%
9 | COc1ccccc1C(=O)Nc1ccc2c(c1)C(=O)N(C)[C@H]1CC[C@H](CC(=O)Nc3cc(F)ccc3F)O[C@@H]1CO2 | inconclusive: 35.2%
10 | CC(C)(C)S(=O)N1Cc2cc(C(=O)N3CCN(Cc4ccccc4)CC3)nc(-c3cccc(-c4cc5ccccc5o4)c3)c2[C@H]1CCO (some centres undefined) | inconclusive: 44.7%
11 | C[C@H](CO)N1C[C@H](C)[C@@H](CN(C)S(C)(=O)=O)Oc2ncc(-c3ccc(F)cc3)cc2C1=O | inactive: 15.8%
12 | Cc1ccc(S(=O)(=O)Nc2ccc3c(c2)CC(=O)N([C@H](C)CO)C[C@@H](C)[C@@H](CN(C)S(=O)(=O)c2ccccc2)O3)cc1 | active: 57.6%
13 | C[C@H](CO)N1C[C@H](C)[C@@H](CN(C)S(=O)(=O)c2cn(C)cn2)OCc2ccccc2-c2ccccc2C1=O | inactive: 13.5%
14 | O=C(CCN1CCCCC1)NCC[C@H]1CC[C@@H](NS(=O)(=O)c2cccc(Cl)c2)[C@@H](CO)O1 | inconclusive: 29.3%
15 | C[C@H]1CN([C@@H](C)CO)C(=O)CCCn2cc(nn2)CO[C@H]1CN(C)C(=O)CCC(F)(F)F | inconclusive: 27.7%
16 | CCCN1C[C@@H](C)[C@H](OC)CN(C)C(=O)c2cc(NS(=O)(=O)c3ccccc3)ccc2OC[C@@H]1C | inactive: -22.6%
17 | O=C(Nc1ccccc1)[C@@H]1[C@@H](CO)[C@@H]2Cn3c(cccc3=O)[C@H]1N2C(=O)c1ccc(F)cc1 | active: 51.2%
18 | C[C@@H]1CN([C@H](C)CO)C(=O)c2ccccc2-c2ccccc2CO[C@H]1CN(C)C(=O)[C@@H]1CCCN1C | inactive: 3.47%
19 | CC(C)CC#Cc1ccc([C@@H]2[C@@H](CO)N3C(=O)CN(C(=O)c4ccccn4)C[C@H]23)cc1 | inconclusive: 45.3%
20 | C[C@H](CO)N1C[C@H](C)[C@@H](CN(C)C(=O)Nc2ccccc2C(F)(F)F)OCc2cnnn2CCCC1=O | inconclusive: 40.7%

Row | Compound | inhibition
21 | CC(C)COC(=O)N(C)C[C@@H]1OCc2ccccc2-c2ccccc2C(=O)N([C@H](C)CO)C[C@@H]1C | inconclusive: 31.9%
22 | COc1ccc2c3c(n(C)c2c1)[C@@H](CO)N(C)CC31CN(C(=O)Nc2c(C)noc2C)C1 | inconclusive: 33.5%
23 | COCC(=O)N1CC[C@@H]2[C@@H](CO)Nc3ccc(C#Cc4ccc(F)cc4)cc3[C@@H]21 | inactive: 12.9%
24 | COc1cccc(C#Cc2ccc3c(c2)O[C@H](CN(C)C(=O)CN2CCOCC2)[C@@H](C)CN([C@@H](C)CO)S3(=O)=O)c1 | inconclusive: 24%
25 | CC(C)C#Cc1ccc([C@@H]2[C@@H](CO)N3C(=O)CN(C(=O)c4ccc5c(c4)OCO5)C[C@H]23)cc1 | inconclusive: 48.9%
26 | Cc1ccc(S(=O)(=O)N[C@H]2CC[C@H](CC(=O)NCc3ccncn3)O[C@@H]2CO)cc1 | inconclusive: 13.8%
27 | O=C(C[C@H]1CC[C@@H](NC(=O)Nc2ccc(C(F)(F)F)cc2)[C@@H](CO)O1)NCc1cccc(F)c1 | inconclusive: 40.3%
28 | C[C@@H]1CN([C@H](C)CO)C(=O)c2ccccc2-c2ccccc2CO[C@@H]1CN(C)S(=O)(=O)c1ccc([N+](=O)[O-])cc1 | inconclusive: 20.6%
29 | Cc1noc(C)c1NC(=O)N(C)C[C@@H]1OCc2cn(nn2)CCCC(=O)N([C@@H](C)CO)C[C@@H]1C | inconclusive: 28%
30 | C[C@@H]1CN([C@H](C)CO)C(=O)CCCn2nncc2CO[C@H]1CN(C)Cc1ccccc1C(=O)O | inconclusive: 34.2%
31 | COc1ccccc1-c1cn(CC[C@@H]2CC[C@H](NC(=O)C3CCCCC3)[C@@H](CO)O2)nn1 | inconclusive: 33.8%
32 | Cc1ccccc1-c1cnc2c(c1)C(=O)N([C@@H](C)CO)C[C@@H](C)[C@@H](CN(C)Cc1ccccc1F)O2 | inconclusive: 29.6%
33 | C[C@@H]1CC=CC[C@@H](c2cccc(Cl)c2)NC(=O)[C@H](Cc2ccccc2)N(C)C(=O)c2ccccc2O1 (mixture of isomers) | active: 50.4%
34 | CCCNC(=O)C[C@H]1CC[C@H]2[C@H](COc3ccc(NC(=O)CC)cc3C(=O)N2C)O1 | inconclusive: 25.5%
35 | O=C(C[C@@H]1CC[C@@H]2[C@H](COC[C@@H](O)CN2C(=O)c2cnccn2)O1)N1CCN(c2ccccc2)CC1 | inactive: -2.5%
36 | C[C@H]1CN([C@@H](C)CO)C(=O)CCCn2cc(nn2)CO[C@H]1CN(C)C(=O)Nc1cccc2ccccc12 | inconclusive: 10.7%
37 | O=C(c1ccccc1F)N1CC(=O)N2[C@H](C1)[C@@H](c1ccc(C#Cc3ccccc3)cc1)[C@@H]2CO | inconclusive: 17.5%
38 | COCC(=O)N1CC[C@@H]2[C@H]1c1cc(C#Cc3ccc(F)cc3)ccc1N[C@@H]2CO | inactive: 22.4%
39 | C[C@H](CO)N1C[C@H](C)[C@H](CN(C)S(=O)(=O)c2ccccc2)OCCCC[C@H](C)Oc2ccc(NC(=O)Nc3ccc4c(c3)OCO4)cc2C1=O | inconclusive: 42%
